Test results reported in a collection of fitness landscapes (doi:10.1016/j.celrep.2020.107928).
The full ranking holds about 81,000 sequences; the median of “one-hybrid fitness for binding NBS DNA” is about -0.1, and the highest 2% start at about 0.36. The list shows a part of the results.

B1: Caulobacter ParB omega fusion; a variant is named by its letters at X, in order, B8GW30 (parent)
chain: MESVVVGEPGMSEGRRGLGRGLSALLGEVDAAPAQAPGEQLGGSREAPIEILQRNPDQPRRTFREEDLEDLSNSIREKGVLQPILVRPSPDTAGEYQIVAGERAWRAAQRAGLKTVPIMVRELDDLAVLEIGIIENVQRADLNVLEEALSYKVLMEKFERTQENIAQTIGKSXSHVANXMRLLXLPDEVQSYLVSGELTAXHARAIAAAADPVALAKQIIEGGLSVRETEALARKAPNLSAGKSKGGRPPRVKDTDTQALESDLSSVLGLDVSIDHRGSTGTLTITYATLEQLDDLCNRLTRGI

Variants of: B1
Experiment: one-hybrid fitness for binding NBS DNA (the Noc-binding site; scaled: cognate 1, non-cognate 0); higher = stronger binding
Details: with NBS DNA site
In short: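 The reporter was HIS3, with the binding site 19 bp from the promoter, in E. coli USO used for bacterial one-hybrid selection of Caulobacter ParB libraries with four specificity codons randomised. Growth was on M9 lacking histidine, with 0.1 mM IPTG and 5 mM 3-AT, for 48 hours at 37°C. Illumina sequencing covered plasmids before and after selection; three replicate libraries were pooled and variants with under 10 reads dropped. A fitness score is the log change in variant-to-wild-type read ratio, rescaled to the cognate and non-cognate references.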

| Variant | one-hybrid fitness for binding NBS DNA |
| --- | --- |
| QWKR | 0.356 |
| FSRT | ≤ 0.2 |
| RLLV | ≤ 0.2 |
| GCYR | ≤ 0.2 |
| EPQP | ≤ 0.2 |
| RGMK | ≤ 0.2 |
| KQEL | ≤ 0.2 |
| DWVS | ≤ 0.2 |
| AMAS | ≤ 0.2 |
| TSYG | ≤ 0.2 |
| NTQV | ≤ 0.2 |
| VDER | ≤ 0.2 |
| GTEF | ≤ 0.2 |
| VCIC | ≤ 0.2 |
| MVHR | ≤ 0.2 |
| HLEP | ≤ 0.2 |
| SCPV | ≤ 0.2 |
| QTKT | 0.883 |
| PSTN | ≤ 0.2 |
| TLSN | ≤ 0.2 |
| QQFL | ≤ 0.2 |
| LDNG | ≤ 0.2 |
| DMVL | ≤ 0.2 |
| KELI | ≤ 0.2 |

| Variant | one-hybrid fitness for binding NBS DNA |
| --- | --- |
| CSSE | ≤ 0.2 |
| HYVC | ≤ 0.2 |
| GMKG | ≤ 0.2 |
| NTRW | ≤ 0.2 |
| WIKR | ≤ 0.2 |
| VRND | ≤ 0.2 |
| IRCT | 0.207 |
| FCPS | ≤ 0.2 |
| PKNG | ≤ 0.2 |
| RHCI | ≤ 0.2 |
| YPTT | ≤ 0.2 |
| IKES | ≤ 0.2 |
| EPKL | ≤ 0.2 |
| IIPN | ≤ 0.2 |
| PMCM | ≤ 0.2 |
| WTMK | ≤ 0.2 |
| DEIR | ≤ 0.2 |
| KMGV | ≤ 0.2 |
| GGSE | ≤ 0.2 |
| VNMS | ≤ 0.2 |
| TKTN | ≤ 0.2 |
| VRMY | ≤ 0.2 |
| RLNP | ≤ 0.2 |
| TCHY | ≤ 0.2 |

| Variant | one-hybrid fitness for binding NBS DNA |
| --- | --- |
| RVPV | ≤ 0.2 |
| LKEE | ≤ 0.2 |
| SGEY | ≤ 0.2 |
| GSMC | ≤ 0.2 |
| ITFG | ≤ 0.2 |
| QFSC | ≤ 0.2 |
| IEPV | ≤ 0.2 |
| DFSV | ≤ 0.2 |
| LNNW | ≤ 0.2 |
| CLMG | ≤ 0.2 |
| QVHF | ≤ 0.2 |
| YNSE | ≤ 0.2 |
| HMPI | ≤ 0.2 |
| LLPQ | ≤ 0.2 |
| NHAA | ≤ 0.2 |
| EQTR | ≤ 0.2 |
| PKHS | ≤ 0.2 |
| LHGM | ≤ 0.2 |
| MPMF | ≤ 0.2 |
| RMCP | ≤ 0.2 |
| DNYE | ≤ 0.2 |
| QKQR | 0.67 |
| RICR | 0.369 |
| CMWS | ≤ 0.2 |

| Variant | one-hybrid fitness for binding NBS DNA |
| --- | --- |
| TMLT | ≤ 0.2 |
| EINN | ≤ 0.2 |
| IKAE | ≤ 0.2 |
| MKYV | ≤ 0.2 |
| THNA | ≤ 0.2 |
| QQPM | ≤ 0.2 |
| SVIS | ≤ 0.2 |
| RTAS | 0.454 |
| EPNT | ≤ 0.2 |
| KRHH | 0.261 |
| KCKF | ≤ 0.2 |
| KVLT | ≤ 0.2 |
| MAHS | ≤ 0.2 |
| ADCG | ≤ 0.2 |
| ETIS | ≤ 0.2 |
| SLAA | ≤ 0.2 |
| MAPC | ≤ 0.2 |
| GTQG | ≤ 0.2 |
| HYFC | ≤ 0.2 |
| YQYK | ≤ 0.2 |
| QVGY | ≤ 0.2 |
| HTTD | ≤ 0.2 |
| AQRW | ≤ 0.2 |
| GCVW | ≤ 0.2 |

| Variant | one-hybrid fitness for binding NBS DNA |
| --- | --- |
| MYCG | ≤ 0.2 |
| TKLL | ≤ 0.2 |
| GVIF | ≤ 0.2 |
| TQQS | ≤ 0.2 |
| NRNS | ≤ 0.2 |
| QAWV | ≤ 0.2 |
| IKKS | ≤ 0.2 |
| WLPG | ≤ 0.2 |
| FTTL | ≤ 0.2 |
| YQAS | ≤ 0.2 |
| LKIR | ≤ 0.2 |
| PKQY | ≤ 0.2 |
| GEAG | ≤ 0.2 |
| DHPD | ≤ 0.2 |
| VSKG | ≤ 0.2 |
| LLNA | ≤ 0.2 |
| MLGR | ≤ 0.2 |
| SGPC | ≤ 0.2 |
| AMVI | ≤ 0.2 |
| VSQR | ≤ 0.2 |
| HYVV | ≤ 0.2 |
| FTAV | ≤ 0.2 |
| KIRI | ≤ 0.2 |
| GRES | ≤ 0.2 |

| Variant | one-hybrid fitness for binding NBS DNA |
| --- | --- |
| IMAE | ≤ 0.2 |
| ALMH | ≤ 0.2 |
| FYEC | ≤ 0.2 |
| HAKC | ≤ 0.2 |
| CLDG | ≤ 0.2 |
| TNFR | ≤ 0.2 |
| AEYL | ≤ 0.2 |
| QAHA | 0.279 |
| PLRT | ≤ 0.2 |
| YFPR | ≤ 0.2 |
| GLLM | ≤ 0.2 |
| CYRS | ≤ 0.2 |
| NSVT | ≤ 0.2 |
| NPPG | ≤ 0.2 |
| RKCS | 0.525 |
| HATN | ≤ 0.2 |
| RYDC | ≤ 0.2 |
| RGVN | ≤ 0.2 |
| KVRT | ≤ 0.2 |
| VWVT | ≤ 0.2 |
| SPAW | ≤ 0.2 |
| DDMS | ≤ 0.2 |
| PPAR | ≤ 0.2 |
| SQAS | ≤ 0.2 |

| Variant | one-hybrid fitness for binding NBS DNA |
| --- | --- |
| CHPN | ≤ 0.2 |
| FTVS | ≤ 0.2 |
| DSWS | ≤ 0.2 |
| ATMS | ≤ 0.2 |
| TRHM | ≤ 0.2 |
| HIDA | ≤ 0.2 |
| DHTE | ≤ 0.2 |
| ERPR | ≤ 0.2 |
| GQDK | ≤ 0.2 |
| APPV | ≤ 0.2 |
| TTVD | ≤ 0.2 |
| WSCC | ≤ 0.2 |
| YYPI | ≤ 0.2 |
| LVTC | ≤ 0.2 |
| ALTH | ≤ 0.2 |
| VTLS | ≤ 0.2 |
| ILAC | ≤ 0.2 |
| ISYQ | ≤ 0.2 |
| QGYL | ≤ 0.2 |
| QDPF | ≤ 0.2 |
| QTNM | 0.34 |
| LKST | ≤ 0.2 |
| CIKT | ≤ 0.2 |
| NRTL | ≤ 0.2 |

| Variant | one-hybrid fitness for binding NBS DNA |
| --- | --- |
| LDLP | ≤ 0.2 |
| PYAC | ≤ 0.2 |
| MSQP | ≤ 0.2 |
| EDMV | ≤ 0.2 |
| GPIS | ≤ 0.2 |
| WVSF | ≤ 0.2 |
| NIRY | ≤ 0.2 |
| QPDW | ≤ 0.2 |
| DHTW | ≤ 0.2 |
| NLLG | ≤ 0.2 |
| RHKC | 0.265 |
| GTLC | ≤ 0.2 |
| IGRR | ≤ 0.2 |
| ASHP | ≤ 0.2 |
| ATLF | ≤ 0.2 |
| VDDR | ≤ 0.2 |
| ASDW | ≤ 0.2 |
| GRLP | ≤ 0.2 |
| GHSR | ≤ 0.2 |
| RKMK | ≤ 0.2 |
| CCKG | ≤ 0.2 |
| QAQS | 0.328 |
| MARA | ≤ 0.2 |
| MNTV | ≤ 0.2 |

| Variant | one-hybrid fitness for binding NBS DNA |
| --- | --- |
| YWPV | ≤ 0.2 |
| RQHC | ≤ 0.2 |
| SYHV | ≤ 0.2 |
| NQPT | ≤ 0.2 |
| HDIG | ≤ 0.2 |
| VEYF | ≤ 0.2 |
| SRTW | ≤ 0.2 |
| TRCR | 0.335 |
| QDMS | ≤ 0.2 |
| QDGS | ≤ 0.2 |
| LPET | ≤ 0.2 |
| PYYM | ≤ 0.2 |
| RLVL | ≤ 0.2 |
| KETC | ≤ 0.2 |
| DPKI | ≤ 0.2 |
| KYAT | ≤ 0.2 |
| AYNR | ≤ 0.2 |
| PKLK | ≤ 0.2 |
| ESNY | ≤ 0.2 |
| PTTM | ≤ 0.2 |
| NGDM | ≤ 0.2 |
| LSSL | ≤ 0.2 |
| ASVN | ≤ 0.2 |
| LCKR | 0.207 |

| Variant | one-hybrid fitness for binding NBS DNA |
| --- | --- |
| MRKI | ≤ 0.2 |
| TCET | ≤ 0.2 |
| DFVR | ≤ 0.2 |
| HPDN | ≤ 0.2 |
| TQAG | ≤ 0.2 |
| NLRG | ≤ 0.2 |
| WIYW | ≤ 0.2 |
| DRAY | ≤ 0.2 |
| GLTP | ≤ 0.2 |
| GKRR | ≤ 0.2 |
| PIKS | ≤ 0.2 |
| RAAG | ≤ 0.2 |
| PNCV | ≤ 0.2 |
| SRYH | ≤ 0.2 |
| TQVF | ≤ 0.2 |
| KNSR | ≤ 0.2 |
| HVIA | ≤ 0.2 |
| TNKN | ≤ 0.2 |
| LPVG | ≤ 0.2 |
| DGVF | ≤ 0.2 |
| PHQG | ≤ 0.2 |
| SHTA | ≤ 0.2 |
| EHRA | ≤ 0.2 |
| TAFS | ≤ 0.2 |

| Variant | one-hybrid fitness for binding NBS DNA |
| --- | --- |
| VAKR | 0.221 |
| DCRT | 0.246 |
| RPAW | ≤ 0.2 |
| LTPQ | ≤ 0.2 |
| KNRK | ≤ 0.2 |
| NAFS | ≤ 0.2 |
| IFCR | ≤ 0.2 |
| LDNC | ≤ 0.2 |
| DDPS | ≤ 0.2 |
| QCVK | ≤ 0.2 |
| LHIR | ≤ 0.2 |
| PCRW | ≤ 0.2 |
| LRSH | ≤ 0.2 |
| GPFS | ≤ 0.2 |
| ATTV | ≤ 0.2 |
| LCGA | ≤ 0.2 |
| YYKK | ≤ 0.2 |
| WASM | ≤ 0.2 |
| FMAL | ≤ 0.2 |
| MHTA | ≤ 0.2 |
| TQIK | ≤ 0.2 |
| ANKG | ≤ 0.2 |
| GHAA | ≤ 0.2 |
| WVAG | ≤ 0.2 |

| Variant | one-hybrid fitness for binding NBS DNA |
| --- | --- |
| RCSR | 0.527 |
| SMRS | ≤ 0.2 |
| RAVG | ≤ 0.2 |
| CNGG | ≤ 0.2 |
| QKKM | 0.409 |
| VRDS | ≤ 0.2 |
| ILYD | ≤ 0.2 |
| DSGS | ≤ 0.2 |
| GMGY | ≤ 0.2 |
| ELAS | ≤ 0.2 |
| PIPS | ≤ 0.2 |
| GACF | ≤ 0.2 |
| GVLR | ≤ 0.2 |
| QKKQ | 0.384 |
| KFTR | ≤ 0.2 |
| NHKL | ≤ 0.2 |
| QSCL | ≤ 0.2 |
| YKQV | ≤ 0.2 |
| VVPI | ≤ 0.2 |
| AKIL | ≤ 0.2 |
| PYNM | ≤ 0.2 |
| YACK | ≤ 0.2 |
| GGGS | ≤ 0.2 |
| WSPR | ≤ 0.2 |

| Variant | one-hybrid fitness for binding NBS DNA |
| --- | --- |
| EHHV | ≤ 0.2 |
| ISCG | ≤ 0.2 |
| GQDR | ≤ 0.2 |
| YLRR | ≤ 0.2 |
| TVMC | ≤ 0.2 |
| QCSW | ≤ 0.2 |
| NGLG | ≤ 0.2 |
| EYPW | ≤ 0.2 |
| QLHM | ≤ 0.2 |
| RWTG | ≤ 0.2 |
| RRED | ≤ 0.2 |
| TTTG | ≤ 0.2 |
| VSMG | ≤ 0.2 |
| AEDS | ≤ 0.2 |
| YFGT | ≤ 0.2 |
| CQRT | ≤ 0.2 |
| LISF | ≤ 0.2 |
| AGMG | ≤ 0.2 |
